Results: patent publication US20060045881A1, “Anti-cancer vaccines” (Board of Regents, The University of Texas System, priority 2004, published 2006)

Experiments:
T2 cells = test: 4-hr cytotoxicity of peptide-elicited CTL lines against peptide-loaded T2 cells; conditions: for elicitation of peptide specific CTL lines: different donors and differing peptide concentrations; for donors whose peptide-stimulated CTL lines killed CCNE1- and CCNE2-peptide-pulsed T2 cells: PBMCs from 7 HLA-A2 positive normal donors
Procedure: CTL cytotoxicity assay. A semiautomated minicytotoxicity assay was used to determine specific lysis as described previously (Molldrem, 2000; Molldrem et al., 1996). Briefly, effector cells were prepared in doubling dilutions from 6×10^3 to 25×10^3 cells/well and were plated in 40 μl, 60-well Terasaki trays (Robbins Scientific, Sunnyvale, Calif., USA) with six replicates per dilution. Target cells (T2 cells, marrow-derived leukemic cells, or BM from a healthy donor) at a concentration of 2×10^6 cells/ml were stained with 10 μg/ml of Calcein-AM (Molecular Probes Inc.) for 60 min at 37° C. After washing three times in CM plus 10% AB, target cells were resuspended at 10^5 cells/ml, and 10^3 target cells in 10 μl medium were added to each well containing effector cells. Wells with target cells alone and medium alone were used for maximum (max) and minimum (min.) fluorescence emission, respectively. After 4 hr incubation at 37° C. in 5% CO2, 5 μl FluoroQuench (One Lambda Inc., Canoga Park, Calif., USA) was added to each well, and the trays were centrifuged for 1 min at 60 g before measurement of fluorescence using an automated CytoFluor II plate reader (PerSeptive Biosystems, Framingham, Mass., USA). The percentage of lysis was calculated as follows: % lysis={1−[(mean experimental mission−mean min.)/(mean max−mean min.)]}×100%.
Induction of Primary CTL responses to peptides. These peptides were next used to stimulate T cells specific for peptide-coated targets. PBMC from a normal healthy donor heterozygous for HL-A2.1 were stimulated with peptide-pulsed T2 cells. The T2 cell line has been used by others as an antigen presenting cell for the generation of peptide-specific CTL. Briefly, T2 cells (which co-express the costimulatory molecule B7.1) were washed 3 times in serum-free RPMI culture media supplemented with penicillin/streptomycin and glutamine (CM) and incubated with peptide at 20 μg/mL for 2 hr in CM. The peptide loaded T2 cells were then irradiated with 7500 cGy, washed once, and suspended with freshly isolated PBMC at a 1:1 ratio in CM supplemented with 10% human serum (HS) (Sigma, St. Louis, Mo.). After 7 days in culture, a second stimulation was performed and the following day, 60 IU/mL of recombinant human interleukin-2 (rhIL2) (Biosource International, Camarillo, Calif.) was added. After 14 days in culture a third stimulation was performed, followed on day 15 by addition of rhIL-2. A fourth stimulation was performed on day 21 followed on day 22 by the addition of rhIL2. After a total of 27 days in culture, the peptide-stimulated T cells were harvested and tested for peptide-specific cytotoxicity toward Calcein AM-labeled T2 cells, leukemia cell lines, and fresh human leukemia cells.
The five MPO peptides discussed above, were used to stimulate T cells specific for peptide-coated targets. PBMC from a normal healthy donor heterozygous for HLA-A2.1 were stimulated with peptide-pulsed T2 cells. The T2 cell line has been used by others as an antigen presenting cell for the generation of peptide-specific CTL. Briefly, T2 cells (which co-express the costimulatory molecule B7.1) were washed 3 times in serum-free RPMI culture media supplemented with penicillin/streptomycin and glutamine (CM) and incubated with peptide at concentrations ranging from 0.2 to 200 μg/mL for 2,hr in CM. […]

[1] = test system: HLA-A2 transfected K562 leukemic cell line; test: Killing of HLA-A2 transfected K562 by CCNE1 peptide-stimulated CTL lines; conditions: not non-transfected K562

Sequence	elicitation of peptide specific CTL lines (T2 cells)	donors whose peptide-stimulated CTL lines killed CCNE1- and CCNE2-peptide-pulsed T2 cells (T2 cells)	peptide-stimulated CTL lines that killed HLA-A2 transfected K562 [1]
LIQPFMFRL [MY5]	No peptide specific CTL lines could be elicited		
ILLDWLLEV [CCNE2144-152]		4 of 7	
SLWRRPFNV [MY1]	No peptide specific CTL lines could be elicited		
LLSYFKQPV [MY3]	No peptide specific CTL lines could be elicited		
ILLDWLMEV [CCNE1144-152]		3 of 7	one of 4
